Holding throughout (test): Primary Screen for Target Class Profiling of Small Molecule Inhibitors of Methyltransferases
The target in assay [1] is Glycine N-methyltransferase (Homo sapiens) (UniProt Q14749). The settings on record: purified enzyme, MTase-Glo SAH luminescence; measured here: GNMT inhibition; at 40 µM; stronger effect = lower value. In a few lines: (§1)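 Each enzyme was reacted with SAM and its substrate, with compounds tested once at 40 uM; SAH formed was read by MTase-Glo luminescence.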
Assay [2] deals with Guanidinoacetate N-methyltransferase (Homo sapiens) (UniProt Q14353). The note with it: purified enzyme, MTase-Glo SAH luminescence; measured here: GAMT inhibition; at 40 µM; stronger effect = lower value. The method in brief:
as §1

In assay [3] the target is Histamine N-methyltransferase (Homo sapiens) (UniProt P50135). The settings on record: purified enzyme, MTase-Glo SAH luminescence; measured here: HNMT inhibition; at 40 µM; stronger effect = lower value. The method in brief:
as §1

Assay [4] concerns the target Nicotinamide N-methyltransferase (Homo sapiens) (UniProt P40261). The note with it: purified enzyme, MTase-Glo SAH luminescence; measured here: NNMT inhibition; at 40 µM; stronger effect = lower value. In a few lines:
as §1

The target of assay [5] is Phenylethanolamine N-methyltransferase (Homo sapiens) (UniProt P11086). The settings on record: purified enzyme, MTase-Glo SAH luminescence; measured here: PNMT inhibition; at 40 µM; stronger effect = lower value. In a few lines:
as §1

This is one part of the list. These are further read-outs of the screen, such as a control signal, another cell line or another target. No call is given for them.
% is set by controls: 0 for no effect and ±100 for the full control effect.

Turning to `C=CC(C)(O)CC/C=C(\C)C(=O)OCC1OC(OC2CCC3(C)C(CCC4(C)C3CC=C3C5CC(C)(C)C(O)CC5(C(=O)O)CCC34C)C2(C)C)C(O)C(OC2OC(CO)C(O)C(OC3OC(CO)C(O)C(OC4OC(COC5OC(CO)C(O)C(O)C5O)C(O)C(O)C4O)C3O)C2O)C1O` (stereo not given), the activity change, negative = inhibition is 2.28% in assay [1]; 6.42% in assay [2]; 13.3% in assay [3]; -6.76% in assay [4]; 8.38% in assay [5].
Consider `CCC(C)C(C(=O)O)N1Cc2c(OCC=C(C)C)c(C)c(OC)c(C(=O)O)c2C1=O` (stereo not given), for which the activity change, negative = inhibition was 3.86% in assay [1]; 1.24% in assay [2]; 9.22% in assay [3]; -11.7% in assay [4]; -4.6% in assay [5].
The matching figures for `COC[C@@H]1OCCN(S(=O)(=O)c2cc(OC)ccc2OC)[C@H]1c1ccccc1`: -1.13%, 0%, 5.38%, 0% and 3.05%.
For `CC1(C)C[C@H](NCc2ccc(CO)o2)[C@@]2(CCC(=O)N3CCOCC3)CC[C@](C)(O)C[C@@H]12`, in that order: -2.03%, -4.19%, 1.11%, 2.09% and 0.968%.
As for `COCCN(CC1CCN(Cc2ccccc2F)CC1)C(=O)c1cc[nH]c1C`, the activity change, negative = inhibition in assay [1] is -3.63%; in assay [2], 1.72%; in assay [3], -0.904%; in assay [4], 2.04%; in assay [5], 15%.
For the molecule `C=C1CCC2C(C)(C(=O)O)CC(O)CC2(C)C1CC/C(C)=C/C(=O)O` (stereo not given), the activity change, negative = inhibition was 0% in assay [1]; 7.67% in assay [2]; 8.93% in assay [3]; -7.47% in assay [4]; 3.85% in assay [5].
For the molecule `COc1ccc2cc3n(c2c1)CC(C)(C(=O)NC1CCCC1)N(c1ccccc1C)C3=O` (stereo not given), the activity change, negative = inhibition was -0.711% in assay [1]; 0.25% in assay [2]; 5.71% in assay [3]; -2.81% in assay [4]; -0.505% in assay [5].
The matching figures for `CC(C)CN1C(=O)C(C)(C)[S+](=O)([O-])[C@@H]2CN(c3ccc(OC(F)(F)F)cc3)C[C@@H]21`: -0.653%, 0.197%, 1.59%, 0.802% and -7.68%.
Consider `C=Cc1ccc(Cn2nc3n(CCC)c(=O)c4ccc(C(=O)NC5CCCC5)cc4n3c2=O)cc1`, for which the activity change, negative = inhibition in assay [1] was -10.8%; in assay [2], 0.334%; in assay [3], -1.5%; in assay [4] it was -7.95%; in assay [5] it was -1.43%.
For `Cc1ncccc1OC1(C(=O)N2CCCC2c2nc(C(C)C)no2)CCNCC1` (stereo not given), the activity change, negative = inhibition was -2.86% in assay [1]; -1.79% in assay [2]; 1.03% in assay [3]; -8.99% in assay [4]; -6.28% in assay [5].
As to `CCCn1c(=O)c2ccc(C(=O)NC(C)C)cc2n2c(=O)n(CC(=O)Nc3ccccc3)nc12`, the activity change, negative = inhibition in assay [1] is 3.13%; in assay [2], 1.67%; in assay [3], 2.59%; in assay [4] it was -0.232%; in assay [5], 0.312%.
For `O=C(c1ccc2ccccc2n1)N1CCc2nnc(CCc3ccccc3)n2CC1`, in that order: -5.78%, -6.62%, -1.97%, -10.8% and -6.09%.
For `Cc1ccc(C(=O)C(C)n2nc3n(C)c(=O)c4ccc(C(=O)NC5CCCC5)cc4n3c2=O)cc1C` (stereo not given), in that order: 1.75%, 0%, -4.38%, 0.315% and 0.025%.
For `CC1(C(=O)NCc2ccc(F)cc2)Cn2cnc(C(=O)NCCN3CCOCC3)c2C(=O)N1C1CC1` (stereo not given), in that order: 3.42%, 0%, 5.12%, 3.7% and 4.54%.
For the molecule `COc1ccc(CNC(=O)CCn2ccc3cc(S(=O)(=O)N4CCCC4)ccc32)cc1`, the activity change, negative = inhibition in assay [1] was -1.87%; in assay [2] it was 3.87%; in assay [3], 0.863%; in assay [4], -4.52%; in assay [5] it was -0.898%.
With `COc1cc(OC)cc(C(=O)N2CCC(c3nc(C4CCOC4)no3)CC2)c1` (stereo not given), the activity change, negative = inhibition in assay [1] is -3.73%; in assay [2], -3.19%; in assay [3], -0.986%; in assay [4], -4.21%; in assay [5], -0.152%.
For the molecule `Cc1ccc(C(=O)CSc2nnc3n(C)c(=O)c4ccc(C(=O)NC5CCCC5)cc4n23)c(C)c1`, the activity change, negative = inhibition in assay [1] is -0.676%; in assay [2], 2.84%; in assay [3], 4.56%; in assay [4], -1.25%; in assay [5], -3.23%.
For `CCCC(C(=O)OCCN(CC)CC)(c1ccccc1)c1ccccc1`, in that order: 2.9%, 12.8%, 4.39%, -7.39% and 9.05%.
The matching figures for `CCCn1c(=O)c2ccccc2n2c(=O)n(Cc3ccccc3F)nc12`: -0.433%, 4.23%, 6.87%, -14.2% and 1.71%.
Consider `O=C(Cn1c(=O)oc2cc(S(=O)(=O)N3CCCC3)ccc21)NC1CCCc2ccccc21` (stereo not given), for which the activity change, negative = inhibition was 2.33% in assay [1]; 1.99% in assay [2]; 8.98% in assay [3]; -5.06% in assay [4]; -9.24% in assay [5].
The matching figures for `CCc1ccc(CNC(=O)c2cc3n(n2)CC(C)(C(=O)NC2CCCCCC2)N(C)C3=O)cc1` (stereo not given): 2.04%, 1.22%, -2.75%, 3.78% and -5.17%.
For `COc1ccccc1CNC(=O)C1(C)Cn2c(cc3ccccc32)C(=O)N1Cc1ccc(OC(C)C)cc1` (stereo not given), the activity change, negative = inhibition came to 6.98% in assay [1]; 0.132% in assay [2]; 6.41% in assay [3]; 4.58% in assay [4]; 0.284% in assay [5].
For `COc1ccc(OC)c(CNC(=O)c2ncn3c2C(=O)N(C2CC2)C(C)(C(=O)NC2CCCC2)C3)c1` (stereo not given), in that order: -11%, -2.5%, -10.6%, -15.8% and -12.5%.
Regarding `COc1cc([C@@H]2Oc3c(OC)cc(CCCO)cc3[C@@H]2CO[C@@H]2O[C@H](CO)[C@@H](O)[C@H](O)[C@H]2O)ccc1O`, the activity change, negative = inhibition in assay [1] is -1.09%; in assay [2] it was 2.41%; in assay [3] it was 2.86%; in assay [4], -9.17%; in assay [5], -0.831%.
On to `COc1ccc(C)c2c1N[C@@H](c1ccc(Br)cc1)[C@H]1CC=C[C@@H]21`, for which the activity change, negative = inhibition in assay [1] was -20.4%; in assay [2], -2.63%; in assay [3], -15.7%; in assay [4] it was -9.68%; in assay [5], -18.2%.
The matching figures for `CCCn1c(=O)c2ccc(C(=O)NC(C)CC)cc2n2c(=O)n(CC(=O)NC(C)C)nc12` (stereo not given): -0.446%, 2.03%, 3.1%, -2.06% and -4.43%.
As for `CCOc1ccccc1CN1C(=O)c2cc3ccccc3n2CC1(C)C(=O)NCCC(C)C` (stereo not given), the activity change, negative = inhibition in assay [1] was 0.806%; in assay [2], 0%; in assay [3], 0.752%; in assay [4], -1.81%; in assay [5] it was -5.44%.
For `Clc1ccc2c(c1)C1C=CCC1C(c1cccc(Br)c1)N2` (stereo not given), in that order: -5.31%, -0.806%, -1.35%, -8.8% and -3.16%.
The matching figures for `Cc1cccc(CN2CCc3nnc([C@@H]4C[C@@H](O)CN4C)n3CC2)c1`: -6.68%, -9.69%, -4.18%, -14% and -12.7%.
On to `CC(C)CC(N)c1nnc2n1CCNCC2` (stereo not given), for which the activity change, negative = inhibition in assay [1] was -3.57%; in assay [2] it was -7.29%; in assay [3], -2.46%; in assay [4], -10.5%; in assay [5], -11.3%.
Take `NC(=O)CN1CCC(c2nc(-c3cn4ccccc4n3)no2)CC1`: the activity change, negative = inhibition in assay [1] was -1.37%; in assay [2] it was -2.95%; in assay [3], 0.075%; in assay [4], -7.44%; in assay [5], -3%.
The matching figures for `COc1ccc(-c2nnc3n(Cc4ccc(F)cc4)c(=O)c4ccccc4n23)cc1`: -3.31%, 0.513%, 2.36%, 1.64% and 1.81%.
For `CC1(C(=O)NC2CCCCCCC2)Cn2c(ccc2-c2ccccc2)C(=O)N1CCC1=CCCCC1` (stereo not given), in that order: -1.87%, 0.472%, 2.37%, -1.04% and -1.16%.
For `COC1CCC12CCN(C(=O)c1ccc(C)s1)CC2` (stereo not given), in that order: -3.84%, -8.89%, -1.29%, -12.5% and -12.6%.
As to `C/C=C/C=C/C=C/C(=O)OC1C=C2C(O)OC(=O)[C@]2(O)[C@@]2(C)CCCC(C)(C)[C@H]12` (stereo not given in full), the activity change, negative = inhibition was -11.3% in assay [1]; 1.06% in assay [2]; 3.07% in assay [3]; -13.1% in assay [4]; -3.89% in assay [5].
The matching figures for `Fc1cccc2c1NC(c1ccc(Cl)cc1)C1CC=CC21` (stereo not given): -7.33%, 4.68%, -1.52%, -4.81% and -3.71%.
For `COc1cccc(NC(=O)CSc2nnc3n(C)c(=O)c4ccc(C(=O)NC5CCCC5)cc4n23)c1`, in that order: -2.78%, 0%, 7.86%, 7.68% and 6.02%.

(Values after PubChem BioAssay AID1745853 (National Center for Advancing Translational Sciences (NCATS), 2022).)
